The structures appear in SMILES notation. Among all 52,000 compounds or so, about 4,300 (8.3%) were called active. Cut-off read from the data, not from the text of the source: active = survival mostly below about 52% (no sharp cut-off); inactive = mostly above about 56%. The list shows a part of the results.

This assay concerns DeltatarO mutant. Description: S. aureus survival, RN4220 and DeltatarO strains – OD600, teichoic acid synthesis inhibitors, primary screen (AID 463173). Conditions: S. aureus RN4220 wild type/DeltatarO growth, OD600, 18 h, stronger effect = lower value, screened at 18.75 µg/mL (by protocol).
Take `Cc1cc(C)nc(NC(=NCCc2c[nH]c3ccc(Cl)cc23)NC(=O)c2ccccc2C)n1`: the survival was inactive: 81%.
In the case of `C=Cc1ccc(Cn2nc(-c3ccc(C)cc3)ccc2=O)cc1` it was active: 35%; in that of `CCOC(=O)c1cc(C)n(CC2CCC(C(=O)Nc3cccc(C)c3)CC2)c1C` (stereo not given), inactive: 98%.
On to `CCOC(=O)c1c(NC(=O)c2ccc(S(=O)(=O)N3CCC(C)CC3)cc2)sc2c1CCN(CC)C2`, for which the survival was inactive: 75%.
As to `CCn1c(C)nnc1SCC(=O)Nc1cccc(Cl)c1`, the survival was inactive: 101%.
To `O=C(O)CCCn1cnc2ccccc2c1=O` belongs inactive: 100%; to `O=C(NC1CCCCC1)c1ccc(CSc2nc3cccnc3n2Cc2ccc(F)cc2)cc1`, active: 25%; to `COc1ccc(CCN2C(=O)C3C(C(=O)Nc4cc(C)on4)C4(C)C=CC3(O4)C2C(=O)NC2CCCCC2)cc1` (stereo not given), inactive: 76%.
For `COc1ccc(S(=O)(=O)NCC(c2ccco2)N2CCN(c3ccccc3)CC2)cc1OC` (stereo not given), the survival is inactive: 89%.
Turning to `CCOC(=O)c1cc(-c2ccccc2)n(CCCC(=O)Nc2cccc(C)c2C)c1C`, the survival is inactive: 116%.
To `O=C(O)CCn1c(=O)c2cccn2c2cccnc21` belongs inactive: 98%; to `Cc1[nH]c(=O)[nH]c(=O)c1S(=O)(=O)N1CCN(c2ccccc2Cl)CC1`, inactive: 70%.
To `CCN1CCN(C(=S)NCC2CCCO2)CC1` (stereo not given) belongs inactive: 73%; to `N#Cc1ccccc1Cn1c(=O)n(-c2cccc(C(F)(F)F)c2)c(=O)c2sccc21`, inactive: 69%; to `COC(=O)c1ccc(NC(=O)CN2C(=O)CCc3cc(S(=O)(=O)N4CCCCC4)ccc32)cc1`, inactive: 102%.
Regarding `CCOc1cc2[nH]c(=O)n(CCCCC(=O)N3CCN(c4cccc(Cl)c4)CC3)c(=O)c2cc1OCC`, the survival is inactive: 85%.
As to `Cc1cccc2sc(N(Cc3cccnc3)C(=O)c3cccs3)nc12`, the survival is inactive: 75%.
To `CCc1ccc(CN2CCc3nc(Nc4ccccc4)ncc3C2)cc1` belongs inactive: 84%.
For the compound `CC(=O)Nc1ccc(NC(=O)c2cc3sccc3n2Cc2ccc(F)cc2)cc1`, the survival was inactive: 138%.
In the case of `CC(C)(C)C1CCc2c(sc3nc(-c4cc5cc(Br)ccc5oc4=O)[nH]c(=O)c23)C1` (stereo not given) it was inactive: 77%; in that of `CCOC(=O)c1c(C)[nH]c(CCC(=O)NCc2ccc(F)cc2)c1C`, inactive: 89%.
To `COc1ccccc1NC(=O)c1sc2nc(C)c(C(=O)Nc3ccc(C)cc3C)c(-c3cccs3)c2c1N` belongs inactive: 85%; to `CCc1ccc(NC(=O)CC2C(=O)N(c3ccc(Cl)cc3)C(=O)N2Cc2ccco2)cc1` (stereo not given), inactive: 91%; to `CCc1ccccc1Nc1nn2c(=O)c3ccc(C(=O)NC(C)c4ccccc4)cc3nc2s1` (stereo not given), inactive: 80%.
For `Cc1ccc(NC(=O)C(=O)NCC(c2cccnc2)N2CCN(c3ccccc3F)CC2)cc1Cl` (stereo not given), the survival is inactive: 73%.
Turning to `COc1cc2[nH]c(=O)n(CCCC(=O)NCc3ccc(Cl)cc3)c(=O)c2cc1OC`, the survival was inactive: 91%.
To `Cc1c(-c2nnc(SCC(=O)Nc3ccccc3F)o2)nnn1-c1ccc(F)cc1` belongs inactive: 96%.
To `CN(C)c1cc(N)c2c(n1)CCC2` belongs inactive: 83%.
For `COc1ccc(CNC(=O)CCc2cn(C)c3ccccc23)cc1`, the survival was inactive: 57%.
As to `CC(NC(=O)c1ccc(F)cc1)C(=O)O` (stereo not given), the survival is inactive: 101%.
Take `Cc1ccc(CCNC(c2ccc(F)cc2)c2nnc(-c3ccccc3Cl)o2)cc1` (stereo not given): the survival is active: -8%.
In the case of `COc1cccc(N2CCN(S(=O)(=O)c3cn(C)c(C)n3)CC2)c1` it was inactive: 107%; in that of `Cc1ccc(C(=O)N/C(=C/c2ccc3c(c2)OCO3)C(=O)O)cc1`, inactive: 97%.
For the compound `COc1ccc(NC(=O)c2cc3nc(-c4ccc(Cl)c(Cl)c4)cc(C(F)(F)F)n3n2)c(OC)c1`, the survival was active: 47%.
Take `CCCNC(=O)c1cnn2c(C)c(Cc3c(C)cc(C)cc3C)c(C)nc12`: the survival was inactive: 57%.
As for `O=C1CCCC2=C1C(c1ccc3c(c1)OCO3)c1c([nH]c(=O)[nH]c1=O)N2` (stereo not given), the survival was inactive: 100%.
To `CCOc1ccccc1NC(=O)N1CCC(n2c(C)nc3cccnc32)CC1` belongs inactive: 99%; to `Cc1sc2ncn(CC(=O)Nc3ccc(F)cc3F)c(=O)c2c1S(=O)(=O)N1CCC(C)CC1`, inactive: 92%.
In the case of `Cc1cc(-c2ccc(C)c(S(=O)(=O)N3CCC(C)CC3)c2)on1` it was inactive: 115%; in that of `CCOC(=O)c1c(C)sc(-c2c(-c3ccc4c(c3)OCCO4)[nH]c3c2c(=O)n(C)c(=O)n3C)c1O`, inactive: 128%.
In the case of `CC(=O)N1c2ccc(S(=O)(=O)N3CCCCCC3)cc2CC1C(=O)NC(C)C` (stereo not given) it was inactive: 86%; in that of `CCOC(=O)N1CCc2c(sc3c2c(=O)n(Cc2ccccc2)c(=O)n3Cc2cc(C)ccc2C)C1`, inactive: 76%; in that of `CC(C)CC(=O)Nc1nc2c(s1)CC(C(C)(C)C)CC2` (stereo not given), inactive: 102%.
In the case of `CCn1c(C(=O)N2CCC(C(=O)N3CCN(c4cc(C)ccc4C)CC3)CC2)cc2sccc21`, the survival was inactive: 51%.
In the case of `COc1ccc(CNC(=O)c2ccc3nc(CCc4ccccc4)oc3c2)cc1OC` it was inactive: 79%; in that of `CCOc1ccc(CNC(=O)c2cccc(NC(=O)N3CCSc4ncccc43)c2)cc1`, inactive: 85%.
To `CC(=O)N1CCc2cc(S(=O)(=O)NC(CC(C)C)C(=O)Nc3ccc(C(C)C)cc3)ccc21` (stereo not given) belongs inactive: 61%.
In the case of `CC(C)Cn1cc(NC(=O)Nc2cccc(C(F)(F)F)c2)c2ccccc2c1=O` it was inactive: 68%; in that of `CCOC(=O)c1c(C)n(S(=O)(=O)c2ccc(C)cc2C)c2ccc(NS(=O)(=O)c3ccc(C)cc3C)cc12`, inactive: 84%.
In the case of `COc1ccccc1Nc1sc(C(=O)c2ccc3c(c2)OCO3)c(N)c1S(=O)(=O)c1ccccc1`, the survival is inactive: 71%.
In the case of `Cc1ccc(C2=Nc3ccccc3N(CC(=O)Nc3ccccc3F)C(=O)C2)cc1C` it was inactive: 71%.
For `CCCS(=O)(=O)N1CCN(S(=O)(=O)CCC)CC1`, the survival was inactive: 114%.
As for `CCc1nn(CCCC(=O)N2CCN(c3cc(Cl)ccc3C)CC2)c(=O)c2cc3occc3n12`, the survival is inactive: 58%.
To `Cc1ccc2nsnc2c1S(=O)(=O)NC(C)(C)C` belongs inactive: 95%.
In the case of `CCCC1CC(C)(c2csc(NCC)n2)OC1=O` (stereo not given) it was active: 71%.
In the case of `COc1ccc(CC(=O)NC2CC(=O)N(c3cccc(F)c3)C2)cc1OC` (stereo not given) it was inactive: 71%; in that of `O=C1c2ccccc2C2(c3ccccc3)NCCCN12` (stereo not given), inactive: 100%; in that of `Cc1nc(-c2ccccc2)sc1-c1ccc(SCC(=O)Nc2cccc(C(F)(F)F)c2)nn1`, inactive: 41%.
For `COc1cccc(C2CC(=O)Nc3cc4c(cc32)OCO4)c1OC(C)C` (stereo not given), the survival was inactive: 70%.
In the case of `COc1ccc(NC(=O)CSCC(=O)O)cc1`, the survival is inactive: 105%.
To `CCC(=O)N1CCc2cc(Br)cc(S(=O)(=O)N3CCC(C(=O)Nc4ccccc4CC)CC3)c21` belongs inactive: 84%.
For the compound `CC(=O)NC1CC(=O)N(c2ccc3c(c2)OCCO3)C1` (stereo not given), the survival was inactive: 55%.
To `CCOc1cc(C(=O)Nc2ccncc2)cc(OCC)c1OCC` belongs inactive: 94%; to `COc1cc(OC)c(NC(=O)C2CCN(C(=O)c3sc4nc[nH]c(=O)c4c3C)CC2)cc1Cl`, inactive: 86%; to `CC(C)Oc1ccc(CNC(=O)C2CCN(c3nc4ccccc4nc3C(F)(F)F)CC2)cc1`, inactive: 69%.
For `CCC1Oc2ccc(C)cc2N(CC(=O)NCc2ccc(OC)cc2)C1=O` (stereo not given), the survival was active: 39%.
In the case of `CCCCN1C(=O)c2[nH]nc(-c3ccccc3O)c2C1c1ccc(C(C)(C)C)cc1` (stereo not given) it was inactive: 88%; in that of `O=C(Nc1cccc(Cl)c1)c1ccc2nc(CCc3ccccc3)oc2c1`, inactive: 69%.
With `CCCn1c2ccccc2c2cnn(CC(=O)NCc3ccccc3Cl)c(=O)c21`, the survival was inactive: 108%.
To `O=c1oc2ccccc2cc1-c1nnc(Nc2ccc(Cl)cc2Cl)s1` belongs inactive: 81%.
In the case of `CCN(CC)CCCNC(=O)Cc1ccc(NC(=O)N2CCCCc3ccccc32)cc1` it was inactive: 79%; in that of `Cc1ccc(Cn2c(-c3ccccc3)nc3ccccc32)cc1`, active: -2%.
In the case of `Cc1ccc(-c2nc3ccccc3n3c(-c4ccccc4)c4c(=O)n(C)c(=O)n(C)c4c23)cc1` it was inactive: 97%.
In the case of `COc1ccc(S(=O)(=O)N2CCN(c3ccccc3OC)CC2)cc1-c1noc(C)n1`, the survival is inactive: 110%.
To `Nc1ccc(CNc2ncn[nH]2)cc1` belongs inactive: 92%; to `COc1ccc(Cn2nnnc2C(C(C)C)N2CCc3ccccc32)cc1` (stereo not given), inactive: 82%.
As for `COc1cc(OC)c(NC(=O)c2cc(CN3CCOCC3)on2)cc1Cl`, the survival was inactive: 89%.
In the case of `CCn1ccc2cc(S(=O)(=O)N3CCCN(C(=O)NCC(C)C)CC3)ccc21` it was inactive: 86%; in that of `CCn1ccc2cc(S(=O)(=O)N3CCC(C(=O)NCc4cccc(C)c4)CC3)ccc21`, inactive: 66%; in that of `CCCCNC(=O)c1cc(Sc2ccc(OCC)cc2)nc2ccccc12`, inactive: 69%.
For the compound `COc1ccccc1N1CCN(c2csc3ccc(Cl)cc3c2=O)CC1`, the survival was inactive: 90%.
To `COc1ccc(Nc2cc(C(=O)NC3CCCC3)c3ccccc3n2)c(OC)c1` belongs inactive: 75%; to `CCNC(=O)Cn1c(-c2cccs2)cc2ccccc21`, inactive: 80%.
To `Cc1ccc(CN(C(=O)Nc2cccc(Cl)c2)c2ccccn2)cc1` belongs active: 40%; to `COc1ccc(NC(=O)c2nnn(Cc3nc(-c4cc(Br)ccc4OC)oc3C)c2C)cc1`, inactive: 41%.
In the case of `CCOc1cccc(C2c3c(oc4ccc(F)cc4c3=O)C(=O)N2CCc2ccc(OC)cc2)c1` (stereo not given) it was inactive: 94%.
In the case of `Cc1oc(C)c2c(=O)cc(-c3ccc4c(c3)OCO4)cc(OC(=O)c3ccccc3Br)c12`, the survival was inactive: 106%.
To `Cc1cc(C)nc(NCC(O)COc2ccccc2C)n1` (stereo not given) belongs inactive: 82%; to `COc1ccc(NC(=O)C2CCN(S(=O)(=O)c3ccc4c(c3)CCCC(=O)N4)CC2)cc1Cl`, inactive: 78%; to `Cc1ccc(Cl)c2sc(NC(=O)CS(=O)(=O)c3ccc(Cl)cc3)nc12`, inactive: 77%.

The values are drawn from PubChem BioAssay AID463173 (ICCB-Longwood Screening Facility, Harvard Medical School, 2010).
